Test results reported in the CheMixHub viscosity set.
The source holds more than one record for some entries. Only these are listed. An entry can have further records. Values that stand side by side are repeats in other runs, samples, wells, individuals or studies. Marks in square brackets tell the records apart. Letters hold for one entry only.

CCCCOC(C)=O
viscosity
Details	298.15 K	303.15 K	308.15 K	313.15 K
101 kPa	0.673 mPa·s [study A] and 0.678 mPa·s [study B] and 0.669 mPa·s [study C] and 0.6723 mPa·s [study D] and 0.675 mPa·s [study E] and 0.686 mPa·s [study F] and 0.7 mPa·s [study G]	0.6345 mPa·s [study A] and 0.63 mPa·s [study B] and 0.635 mPa·s [study C] and 0.6491 mPa·s [study D] and 0.6491 mPa·s [study E] and 0.625 mPa·s [study F] and 0.641 mPa·s [study G]	0.596 mPa·s [study A] and 0.592 mPa·s [study B] and 0.589 mPa·s [study C] and 0.595 mPa·s [study D]	0.5609 mPa·s [study A] and 0.556 mPa·s [study B] and 0.555 mPa·s [study C] and 0.556 mPa·s [study D] and 0.567 mPa·s [study E] and 0.545 mPa·s [study F] and 0.558 mPa·s [study G]
101.33 kPa	0.679 mPa·s [study A] and 0.673 mPa·s [study B] and 0.675 mPa·s [study C] and 0.662 mPa·s [study D]	0.634 mPa·s [study A] and 0.63 mPa·s [study B] and 0.631 mPa·s [study C] and 0.623 mPa·s [study D] and 0.648 mPa·s [study E]	–	–
